The values that follow come from publication PMC4336329 (PLoS ONE, 2015).

Molecules are shown by their SMILES. In all, about 310,000 compounds went through this assay and about 2,200 (0.71%) showed an effect of 50% or more. The effect is printed as a negative number. Some of the results follow.

The target of the test is human ether-à-go-go-related gene (hERG) potassium channel (human, UniProt Q12809). Description: primary screen, population patch clamp on CHO cells stably expressing hERG.
human ether-à-go-go-related gene (hERG) potassium channel, sequence (Q12809 whole entry, looked up): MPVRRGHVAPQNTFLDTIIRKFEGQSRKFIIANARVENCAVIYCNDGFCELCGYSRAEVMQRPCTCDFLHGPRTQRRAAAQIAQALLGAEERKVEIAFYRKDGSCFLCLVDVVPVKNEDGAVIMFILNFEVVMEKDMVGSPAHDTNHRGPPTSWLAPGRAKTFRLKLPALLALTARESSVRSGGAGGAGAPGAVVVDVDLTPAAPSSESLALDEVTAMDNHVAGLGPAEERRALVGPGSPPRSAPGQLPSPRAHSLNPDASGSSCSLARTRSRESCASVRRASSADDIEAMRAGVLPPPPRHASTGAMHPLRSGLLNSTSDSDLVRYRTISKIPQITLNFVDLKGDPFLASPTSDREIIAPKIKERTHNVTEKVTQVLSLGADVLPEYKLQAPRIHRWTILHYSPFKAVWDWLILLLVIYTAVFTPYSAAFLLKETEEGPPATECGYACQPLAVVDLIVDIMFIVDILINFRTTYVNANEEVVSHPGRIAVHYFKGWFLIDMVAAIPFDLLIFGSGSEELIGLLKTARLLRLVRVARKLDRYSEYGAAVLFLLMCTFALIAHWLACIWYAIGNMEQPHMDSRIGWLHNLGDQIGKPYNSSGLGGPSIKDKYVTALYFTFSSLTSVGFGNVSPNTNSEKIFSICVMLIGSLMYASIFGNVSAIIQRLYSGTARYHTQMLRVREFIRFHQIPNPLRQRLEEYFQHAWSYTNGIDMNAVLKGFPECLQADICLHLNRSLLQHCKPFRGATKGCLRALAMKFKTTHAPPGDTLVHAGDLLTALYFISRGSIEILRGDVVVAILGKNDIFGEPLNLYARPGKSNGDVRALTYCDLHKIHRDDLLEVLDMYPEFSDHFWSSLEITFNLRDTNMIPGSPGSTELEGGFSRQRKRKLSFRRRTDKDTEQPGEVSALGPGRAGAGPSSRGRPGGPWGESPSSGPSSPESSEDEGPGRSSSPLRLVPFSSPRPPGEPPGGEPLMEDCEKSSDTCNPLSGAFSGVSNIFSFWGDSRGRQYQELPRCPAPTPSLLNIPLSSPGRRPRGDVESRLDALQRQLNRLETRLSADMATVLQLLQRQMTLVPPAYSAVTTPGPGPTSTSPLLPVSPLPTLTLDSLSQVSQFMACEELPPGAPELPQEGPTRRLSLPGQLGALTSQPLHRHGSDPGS
As for `CCn1c(=O)cc(SCC(=O)Nc2ccc3c(c2)OCCO3)c2ccccc21`, the “hERG current change (%, negative = inhibition) at 1uM” value amounted to 8.52%. To `O=P(COCCOCP(=O)(c1ccccc1)c1ccccc1)(c1ccccc1)c1ccccc1` belongs 20%. Under `COc1ccc(CCNC(=O)CSc2nc3sc(C(=O)O)c(C)c3c(=O)[nH]2)cc1OC` stands -0.155%; under `Cc1ccccc1C(=O)NNC(=O)/C=C/c1ccccc1`, 11.3%; under `CC1CN(S(=O)(=O)c2ccc(C(=O)N3CCc4ccccc43)cc2)CC(C)O1` (stereo not drawn), 11.6%. For `CCOc1ccccc1N(C)C(=O)CCS(=O)(=O)c1ccc2c(c1)NC(=O)CO2`, the “hERG current change (%, negative = inhibition) at 1uM” value is 16.2%. On to `N#CC1=C(S)N(c2ccccc2)C(c2cccs2)NC1=O` (stereo not drawn), for which the “hERG current change (%, negative = inhibition) at 1uM” value was 2.05%. Consider `CN(Cc1c(F)cccc1Cl)C(=O)c1cccc(S(=O)(=O)NCc2ccccc2)c1`, for which the “hERG current change (%, negative = inhibition) at 1uM” value stood at 6.08%.

Regarding `O=c1nc2n(Cc3ccccc3)c3ccccc3cc-2c(=O)[nH]1`, the “hERG current change (%, negative = inhibition) at 1uM” value came to 5.26%. Take `COC(=O)c1cccc2c1NC(=O)C2=O`: the “hERG current change (%, negative = inhibition) at 1uM” value stood at 9.35%. For the molecule `CCN(CC)C(=O)Cn1cc(C(=O)C(=O)NCc2cccnc2)c2ccccc21`, the “hERG current change (%, negative = inhibition) at 1uM” value amounted to 14.1%.

Turning to `CC(NC(=O)C(=O)NCCC1=CCCCC1)c1ccccc1` (stereo not drawn), the “hERG current change (%, negative = inhibition) at 1uM” value is 8.63%. To `ClC1(Cl)CC1CSc1nc2ccccc2[nH]1` (stereo not drawn) belongs 1.48%; to `Cn1cnc2c1c(=O)[nH]c(=O)n2C`, 15.7%. `CC1CCCN(C(=O)c2ccc3c(=O)n(C4CCCC4)c(=S)[nH]c3c2)C1` (stereo not drawn): the “hERG current change (%, negative = inhibition) at 1uM” value is 7.94%.

Consider `Cc1ccccc1-c1cc2nc(C)c(C)c(=O)n2[nH]1`, for which the “hERG current change (%, negative = inhibition) at 1uM” value is 9.82%. To `Cc1oc(-c2ccccc2Cl)nc1CS(=O)CC(=O)NCc1cccs1` (stereo not drawn) belongs 11.1%. Under `COc1cc(NC(=O)CSc2nc3[nH]ncc3c(=O)n2-c2ccc(Cl)cc2)cc(OC)c1` stands 16.3%. Regarding `Cc1ccc(-c2ccc(CO)o2)cc1N`, the “hERG current change (%, negative = inhibition) at 1uM” value is given as 13.4%. Take `CC(=O)N(Cc1ccco1)C1(C(=O)NC2CCCCC2)CCCCC1`: the “hERG current change (%, negative = inhibition) at 1uM” value is reported as 5.71%. Under `COc1ccccc1NC(=O)c1ccc(-c2ccccc2F)o1` stands 12.9%; under `CCCN(CC(=O)Nc1ccc(C(N)=O)cc1)CC(=O)Nc1cc(Cl)ccc1Cl`, 8.33%; under `CCc1ncc(C(O)c2cccc(OC)c2OC)n1C` (stereo not drawn), 4.14%. To `Cc1ccc(NC(=O)C2CCCN(C3=NS(=O)(=O)c4ccccc43)C2)c(O)c1` (stereo not drawn) belongs 5.29%; to `COc1ccc(OCCSc2nc(C)c(Cc3ccccc3)c(=O)[nH]2)cc1`, 7.38%. With `CCOC(=O)Nc1sc2c(c1C(=O)OCC)CCC2`, the “hERG current change (%, negative = inhibition) at 1uM” value is 14.7%.

As for `C/C(=N\NC(=O)c1ccc(CN2CCc3ccccc3C2)cc1)c1ccccc1O`, the “hERG current change (%, negative = inhibition) at 1uM” value turned out to be 11.4%. Take `COc1ccc(Br)cc1CN(C)C(=O)c1cc(Cl)c2c(c1)OCCO2`: the “hERG current change (%, negative = inhibition) at 1uM” value turned out to be 13.9%. Under `CCC(=O)Nc1ccnc(-c2cccnc2)n1` stands 2.92%; under `Cc1nc2ncnn2c(C)c1CCC(=O)NC(C)c1ccc2c(c1)OCCO2` (stereo not drawn), -15.5%.

As for `COc1ccccc1OCC(=O)Nc1cccc(-c2nnc(-c3ccco3)o2)c1`, the “hERG current change (%, negative = inhibition) at 1uM” value came to 15%.

On to `COc1ccc(OC)c(-c2csc(NC(=O)Cc3ccc(F)cc3)n2)c1`, for which the “hERG current change (%, negative = inhibition) at 1uM” value came out at 15.5%. As to `COc1cccc(NC(=O)c2cc(C(=O)Nc3cccc(OC)c3)n(C)n2)c1`, the “hERG current change (%, negative = inhibition) at 1uM” value amounted to 14.5%. As to `CCn1cc(C(=O)N2CC(C)CC(C)C2)c(=O)c2cc(S(=O)(=O)N(C)C)ccc21` (stereo not drawn), the “hERG current change (%, negative = inhibition) at 1uM” value worked out at 0.69%. To `N#Cc1ccccc1S(=O)(=O)N1CCN(C(=O)CN2C(=O)NC3(CCCC3)C2=O)CC1` belongs 17.6%.

Regarding `Cc1ccc(/C=N/n2c(-c3ccco3)n[nH]c2=S)cc1`, the “hERG current change (%, negative = inhibition) at 1uM” value turned out to be 14.6%. `C=CCn1c(SCCCC)nc([O-])cc1=O.[NH4+]`: the “hERG current change (%, negative = inhibition) at 1uM” value stood at 3.42%. Under `CC1CCN(c2ccc3c(c2)S(=O)(=O)c2ccccc2C3=O)CC1` stands 12.8%. Take `Cc1oc2c(c1C(=O)c1ccccc1)C(=O)C(=O)c1ccccc1-2`: the “hERG current change (%, negative = inhibition) at 1uM” value was found to be 4.1%. Under `COc1ccccc1N1CCN(C(=O)c2ccc(NS(=O)(=O)c3ccc(C)cc3)cc2)CC1` stands 8.08%.

For `CC(C)(C)c1cc(/C=C2\NC(=O)NC2=O)cc(C(C)(C)C)c1O`, the “hERG current change (%, negative = inhibition) at 1uM” value came out at 13.1%. Under `CCCn1cnc2cc(NC(=O)c3cccs3)ccc21` stands 15.7%. Under `O/N=C1\CCCc2c1nc(-c1ccccc1F)n2O` stands 17.9%; under `O=C(Nc1ccccc1OC(F)(F)F)c1ccc([N+](=O)[O-])cc1`, 6.59%; under `Cc1ccc2c(c1)C1CN(C)CCC1N2C(=O)/C(C#N)=C/c1ccc2c(c1)OCO2` (stereo not drawn), 3.5%. To `O=C(c1ccccc1Br)N1CCn2c1nc1ccccc12` belongs -1.38%; to `O=C1CC(N2CCN(c3ccc(Cl)cc3)CC2)C(=O)N1c1ccccc1` (stereo not drawn), 3.93%; to `CN(C(=O)COC(=O)c1cccc(Cl)c1)C1CCS(=O)(=O)C1` (stereo not drawn), 4.65%. For `Cc1cc(C(=O)N2CCc3ccccc3C2)n[nH]1`, the “hERG current change (%, negative = inhibition) at 1uM” value is given as 9.64%. In the case of `c1ccc(Nc2nc(-c3cccnc3)cs2)nc1`, the “hERG current change (%, negative = inhibition) at 1uM” value is 5.19%.

Regarding `COC(=O)c1cc(=O)n(-c2ccccc2)c(=Nc2ccccc2)s1`, the “hERG current change (%, negative = inhibition) at 1uM” value turned out to be 12.8%.

For `COc1ccc(N2CCCn3c2nc2c3c(=O)n(Cc3ccc(C)cc3)c(=O)n2C)c(OC)c1`, the “hERG current change (%, negative = inhibition) at 1uM” value worked out at 3.54%. `BrCCc1ccccc1`: the “hERG current change (%, negative = inhibition) at 1uM” value was determined as 9.3%. Under `CCC(=O)Nc1cc(C(=O)OCc2ccc(C(=O)Oc3ccccc3)cc2)ccc1C` stands 11.3%; under `Cc1cc(C)c(C)c(OCCOCCN2CCOCC2)c1`, 0.238%. To `Cc1ccc(NC(=O)COC(=O)COc2ccc(Cl)cc2C)c([N+](=O)[O-])c1` belongs 5.43%; to `CCS(=O)(=O)N1CCC(C(=O)Oc2ccc(C(=O)OC)cc2)CC1`, 6.64%. For `O=C(/C(C=Nc1ccc(Br)cc1)=C(/O)c1ccco1)C(F)(F)F`, the “hERG current change (%, negative = inhibition) at 1uM” value is given as -0.634%. Under `Cc1ccc(C(=O)N2CCN(c3ccccc3)CC2)cc1S(=O)(=O)N1CCCC1` stands 3.98%; under `CCOc1cc(CNCc2ccncc2)cc(Br)c1OCc1ccccc1F.Cl`, 10.1%; under `CC(=O)c1cc(C#N)c(SCC(=O)OC(C)C)nc1C`, 5.57%.

`COc1ccccc1CC(=O)N1CCN(c2cccc(C(F)(F)F)c2)CC1`: the “hERG current change (%, negative = inhibition) at 1uM” value is recorded as 5.11%. Take `COC(=O)c1ccc(C(=O)Nc2ccc3nc(-c4ccncc4)[nH]c3c2)cc1`: the “hERG current change (%, negative = inhibition) at 1uM” value was determined as 6.68%. As to `COc1ccc([N+](=O)[O-])cc1N1C(=O)c2cccc3cccc(c23)C1=O`, the “hERG current change (%, negative = inhibition) at 1uM” value was found to be 5.8%. Under `O=[N+]([O-])c1ccc(-c2nnc3n2CCCCC3)cc1` stands 6.45%; under `O=[N+]([O-])c1cc([N+](=O)[O-])c(Oc2cncc(Cl)c2)cc1NC1CCCCCCC1`, 12%. Under `CC(C)C[C@H](NC(=O)c1nc[nH]c1C(=O)NCc1ccccc1)C(=O)OC(C)(C)C` stands 14.1%; under `CN1C(=O)CC[C@H]1c1cccnc1`, 13.7%; under `O=C(Oc1ccc(Cl)cc1)c1ccc2nccnc2c1`, 13.1%. To `CCCCCCCN1CCN=C1N(C)C` belongs -38.2%. With `COc1ccc(C2CC2/C(C)=N/OC(=O)C2CC2)cc1` (stereo not drawn), the “hERG current change (%, negative = inhibition) at 1uM” value came out at 11.1%. To `N#CCOc1nc(N2CCCC2)nc(N2CCCC2)n1` belongs 7.46%; to `CCOCCCN(C)C1CCN(C(=O)c2oc3ccccc3c2NC(=O)c2ccc(F)cc2)CC1`, -85.6%. Under `CCn1c(CSc2nc3ccccc3s2)nnc1SCC(=O)c1ccc(O)cc1O` stands 10.4%; under `Cn1cnnc1SCC(=O)N(Cc1ccc2c(c1)OCO2)C1(C(=O)NC2CCCCC2)CCCC1`, 7.11%; under `Cc1ccc(SCCn2nc(C(=O)O)c3ccccc3c2=O)cc1`, 8.49%. To `COc1ccc(OCC(=O)N/N=C2\CCCCc3ccccc32)cc1` belongs 13%. Take `Cc1cnc(C(=O)OCC(=O)Nc2ccc(Cl)cc2)cn1`: the “hERG current change (%, negative = inhibition) at 1uM” value is reported as 4.91%. `O=C(Nc1ncn[nH]1)c1ccc(S(=O)(=O)N2CCOCC2)cc1`: the “hERG current change (%, negative = inhibition) at 1uM” value turned out to be 4.21%. To `Cc1nc(-c2ccc(NC(=O)c3ccccc3Br)cc2)cs1` belongs 11.8%. Regarding `COc1ccc(NC(=O)c2oc3ccccc3c2NC(=O)c2ccco2)cc1`, the “hERG current change (%, negative = inhibition) at 1uM” value is given as -0.49%. Under `COc1ccc(COCC(O)CN2CCC(CN3C(=O)c4cccc5cccc(c45)C3=O)CC2)cc1OC.Cl` (stereo not drawn) stands -20.2%; under `Cc1ccc(-c2nnc(N3CCN(C(=O)c4ccco4)CC3)c3ccccc23)cc1`, -18.1%; under `CCN(CC)C(=O)CSc1nnc(-c2cccc(OC)c2)o1`, 6.02%. To `CCCC(=O)Nc1ccc(NC(=O)c2ccco2)cn1` belongs 10.2%; to `COC(=O)c1c(C)noc1-c1ccc(Cl)cc1`, 4.17%; to `CCc1ccccc1NC(=S)N(CCN(C)C)C(C)c1cccnc1` (stereo not drawn), 9.21%. For `CN(C)CCn1c2c(c(SCC(=O)Nc3ccc4c(c3)OCCO4)nc1=O)CCC2`, the “hERG current change (%, negative = inhibition) at 1uM” value stood at 6.44%. With `Cc1cc(N(C)Cc2ccccc2)nc2cc(O)ccc12`, the “hERG current change (%, negative = inhibition) at 1uM” value is -18.9%. As for `CCc1cc(=O)oc2cc(OCc3ccc(C(=O)O)o3)ccc12`, the “hERG current change (%, negative = inhibition) at 1uM” value is recorded as 22.3%.
